Results taken from the RNAGym collection of RNA variant scans (doi:10.7554/elife.90254).
Read counts are not given, so values of variants with three or more changes are uncertain.

B1: LINE1-mini (parent)
chain: GGCAGAGCUCAACACAGCGUGGCAAAGUGGCUGUGGCUAGACUGCC

Variants of: B1
Assay: self-cleavage, relative activity (ratio to wild type); higher = more cleavage; in vitro, sequencing; the parent is a self-cleaving ribozyme

Variant	self-cleavage
A14G C15U A26C G29U U32C	0.2
C13G G33C G36A U38A	0.01
G7U G17A U20A	0.01
A4C C8G U9A G27U G29C	0.07
G5A G7C C8A C23A	0.54
A6G A14U A41G C46A	0.06
A4G G7A C15U G30U C42U	0.58
A6C G17C C23U G40U	0.24
A4U C15U G17A U20A G30A G36C	0.01
A4C G5U G7C G29U	0.04
A4U C15U C42U C45G	0.09
C15G G17A G19U G22A G35A C37G	0.02
G7A U9G C15U	0.24
C15A G19A A26U G40U	0.06
G1C G2C C3G A11U	0.1
G7A A25U U34A	0.07
G2U C8A U9G G19U A25U U28C	0.08
C3G G7C C10U A14U C15U G29C G44C	0.04
C3A G5U A14U A41U	0.21
A12U A24U C45A	0.17
C8A A11C U28A G33A A39G	0.02
G7U G21A C37U	0.1
U20C C23U U28G	0.2
C23G C37G U38A	0.01

Variant	self-cleavage
A11C C13G G17U A26C G33U G36C G40A A41C	0.01
G2A C10U A11C G22A G27U U34A	0.02
G27U G40A G44A	0.08
C3U A11C G35A	0.02
A4U U9G A24G	0.27
C10U G19A G30U U34A	0.13
G21C G35U G36A	0.26
G1U G17C G30U	0.03
A4G G22U C23G	1.36
A14G G29U C37A	0.01
G2A U9C C18G	0.09
G2C G5A C18A G19C C46U	0.06
G2A A6G C10G U28C U38G	0.01
G5A A14G G22C A24C C42A	0
A4U G5C C13U C18U G35C	0.12
A16U C23A A39C	0.03
G17C U34A G44U	0.02
G19C G22U U28A	0.13
C13U G19C G29C U34C C37U U38G	0
G2C C3A U9C	0.05
C31G U32C G33A G44A	0.03
A6G G7U U9A A39G	0.04
A6U G22C U32G A39U	0.05
A4G C13U C15A G17A G27A	0.03

Variant	self-cleavage
G7A A24U A26C U32C C42A	0.23
G2C U9G A26U C31A	0.04
C3U G22U A41U	0.33
A6C C13U A16G G21A G27U	0.13
A6U A14C G27C G33A	0.13
C3A A6G A12C	0.02
C18U G40U G44U	0.02
A4U C10A C31G	0.02
A12U C13U A14G C15U	0.02
C15U A26U U43A	0.2
C15U U34A U38G	0.09
A12G A16U G27C C37U	0.17
G5C G17A G30A	0.02
G7U A11C U38C	0.04
G7A C10U A11U	0.03
G1U G17U G22U	0.03
A24C G29A G30A U34A	0.03
C13U A26U A41C	0.07
U9G U20C C31U C37A	0
G1C G22A C37U G40C	0
G1A A11C C18U A25G G30U	0.02
A4G G5C A6G C10U A16U G29U G33A G35U	0.01
G17U G29U G35U	0.07
G1C U28A C46G	0.04

Variant	self-cleavage
A12C G19C A41G	0.02
C13A G19A A24U G30A	0.05
C10A G22C C31G	0.02
G7U G30A C31U U32G G33U U34C U43A	0.24
G1A G7U U20C G27C G36U	0.03
G5U G17A C18U A26G	0.05
G5C C8A G21C A41C	0.16
G1A G5U A16G G36A	0.01
G30A U32C G35A C37A	0.04
A11C G27A U43A	0.01
C3U A25G G29C	0.99
G22U G27A C42A C46A	0.04
G1C A4C C10U G35C	0.02
C23U U28G G29A U32A	0.87
C10G G27U U28A A39G	0.05
G19U C42A G44U	0.05
G1C C13U C18G G27C	0
G27U G29C C42G G44A	0.02
C13U U20A G29C C42U	0.02
C10A G36A G40U	0.05
C3G C10A G33A	0.02
A16U A24U U38C	0.04
A14U C18U A24U A41U	0.02
A6C C37G C46A	0.01

Variant	self-cleavage
G1U A16U G44U C46A	0.02
G5A G17C G33U	0.05
G1A C3A G30U C46A	0.45
C8A G29U G33A C42U	0.43
G5C C10U A11C A24G G35U	0.02
C10U G27U G36A A39C	0.05
G5U A6G C42G	0.13
A12G G19U G27C U34A	0
A4C G5A C13A	0.08
A11U C13G G30A G40U	0.02
C18A G21U A41C	0.13
A14U G35U U38C	0.17
G7U A14C C15G A16C G36A	0.01
A12U U20A G22C U32C C37U C45U	0
A4U G7U C46G	0.15
U9G G27U A39G C45A C46A	0.08
A4G G17C G22U C37U	0.05
A6G C18U A24G G30C G40U G44C	0.02
C3A C18A G33A G40C	0.09
G2U U9A A16U C31A U38G	0.02
G5A G7A A24G	0.35
G19U G30C U38C	0.06
C13G A26C A41U	0.22
A14C U28A C31U	0.01

Variant	self-cleavage
A11U A14C A25U U38A	0.02
C8A G17C A26G U32C	0.16
C13A G33A C45U	0.1
A4C C31G G40C C45G	0.05
C10U C15G G29A U32G G36A A41G	0.07
G7C C13A C37G	0.02
C13U G17U U20C G22U C31A G35A C46G	0.6
C10G G17U U28A G33A	0
G7C A11G C31U G33A C37A G40C C46A	0.01
G5C U9C C10A C45G	0.01
C8G A11G G36C	0.01
G17C G19U C42G	0.04
G5U A39C C45G	0.02
G22U G29U G40A	0.17
C3U C8U A12U G21A U28A A41U	0.27
G2A A12G A39U	0.13
G2A G5U C8G C10A C23A U34A G35A	0.06
A24C G35U C37G	0.18
G2C G5U C8A A12C G21U	0.02
G27A G30A C46A	1.17
G17U A26G G40A U43C	0.05
G2C U20A G21A C23A A26U G30A G36C G44U	0.2
G2U G30U G33U	0.03
A4U C15A C18U G22U A24C G33A A39U	0

Variant	self-cleavage
G19C A25C C42U	0.1
C10U C18U C31A	0.1
U28A G33A U34C	0.05
G21U G22A U34C	0.29
C3A G5U U9A C13U A24G C46G	0.62
G5A C13U G29C	0.13
G19A A26G G29C A39G	0.06
C15U G17C U34A G36A	0.03
A16G G22A C31U	0.05
C18G G33A U34G G44U	0.05
G1U G19A G22C U38G	0
A4C G17U A25C G27C U32A A39G	0.02
G17U G21U U34C G36C U38G	0.01
G27A C31G C46U	0.3
C8A U9G G21C G27U	0.05
G1C A4U A11G G33A U34A G36U A41U	0.01
U9C U32C C45G	0
C10U A14U A26G U28A A41U	0.05
C8G C10A C13A G17U G27U	0.03
C15A A25C G29U C37G A41C	0.02
A4G U9G C18G U32C A41G	0.13
C3U A4G C45A	0.08
A12C C37U C42G C46U	0.01
